# Measured values as given in PubChem BioAssay AID686979 (National Center for Advancing Translational Sciences (NCATS), 2013).
# Values joined by “and” are separate entries in the source; they are usually repeats but may differ in a detail not shown here. Identical values can stand only once. Among all 420,000 compounds or so, about 50,000 (12%) were called active. Inconclusive means that the source gave no clear call. Such entries were picked first, then a sample of the others. Calls come from the whole dose curve; as a rule, active = well fitted inhibition curve with a large enough effect; inconclusive = small, poorly fitted or top-dose-only effect; inactive = flat fitted curve, though single readings scatter. Potencies of inconclusive entries are doubtful fits and often do not repeat. Where a SMILES comes first, the peptide text is derived from it. [ ]: non-standard residue; d: D form. Nle = CCCC[C@H](N)C(=O)O
# Assay: qHTS for Inhibitors of human tyrosyl-DNA phosphodiesterase 1 (TDP1): qHTS in cells in presence of CPT; note: nearly all actives have a fitted effect of over 55% in size
# Details: chicken DT40 Tdp1-/-;hTDP1 cells + 20 nM CPT, ATP luminescence, 48 h; activity change, negative = growth inhibition: at 46.2 µM (top of the series) unless noted
# Method in brief: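 Cell growth measured by CellTiter-Glo luminescence after a minimum 48 h, 37 C compound exposure with 20 nM CPT in Tdp1-knockout DT40 cells stably expressing hTDP1, seeded 400/well; qHTS titration format.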
# % is set by controls: 0 for no effect and ±100 for the full control effect; potency is the fitted concentration of half-maximal effect; tags give direction and shape of the fitted curve.
SMILES,Potency,"activity change, negative = growth inhibition"
CCCC[C@@H](C=O)NC(=O)[C@H](CC(C)C)NC(=O)[C@H](CC(C)C)NC(C)=O (Ac-Leu-Leu-[Nle]-aldehyde),active: 1.26 µM,
CCOc1ccccc1N(C(=O)c1snc(C(N)=O)c1N)C(C(=O)NCC1CCCO1)c1ccc2ncccc2c1 (configuration not stated),,inactive: -1.4%
Cc1ccc(SCc2cc(=O)[nH]c(Nc3nc(C)c4ccccc4n3)n2)cc1,active: 11.6 µM,
O=C(CSc1nc(-c2ccccc2)c(-c2ccccc2)[nH]1)N1CCN(S(=O)(=O)c2ccccc2)CC1,active: 18.4 µM,
COc1ccc(NC(=S)N2CCC(NC(=O)c3ccc(F)cc3)CC2)cc1,,inactive: -22.2%
CSc1ccccc1C(=O)Nc1cc([N+](=O)[O-])ccc1C,,inactive: -1.34%
O=C(NCCOc1ccccc1)c1cccc(S(=O)(=O)NCc2ccccc2)c1,"inconclusive: 29.1 µM [inhibitor, partial curve, poor fit]",
Cc1cc(=O)n2nc(N3CCCC3C(=O)Nc3cccc(Cl)c3C)sc2n1 (configuration not stated),,inactive: -6.5%
COC(=O)c1c(-c2cccs2)csc1NC(=O)c1cccc(Cl)c1,"inconclusive: 20.6 µM [inhibitor, single point]",
COC(=O)c1c(-c2cccs2)csc1NC(=O)c1ccc(Br)cc1,"inconclusive: 29.1 µM [inhibitor, single point]",
CCOc1ccc(-c2cc(CCCC(=O)NCCc3ccc(Cl)cc3)no2)cc1,,inconclusive: -30.1% [inhibitor]
COc1cccc2cc(C(C)N(CCCN3CCOCC3)C(=O)Nc3ccc(Cl)cc3)oc12 (configuration not stated),"inconclusive: 25.9 µM [inhibitor, single point]",
Cc1nc2ccccn2c1-c1csc(Nc2cccc(O)c2)n1,active: 0.731 µM,
CCOC(=O)CSc1nc2ccsc2c(=O)n1C1CCN(C(=O)OCC)CC1,"inconclusive: 20.6 µM [inhibitor, partial curve]",
CC(C)C(=O)Nc1cccc(COc2cccc(CN(Cc3ccccc3)C(=O)OC(C)(C)C)c2)c1,"inconclusive: 20.6 µM [inhibitor, single point]",
COCc1nc2sc(C)c(C)c2c(=O)[nH]1,,inconclusive: -31.2% [inhibitor]
CNC(=O)C1CN(C(=O)c2nn(Cc3ccccc3)c(=O)c3ccccc23)c2ccccc2O1 (configuration not stated),"inconclusive: 32.6 µM [inhibitor, single point]",
Cc1ccc(Cc2nc(-c3ccccn3)no2)cc1,,inactive: -11%
COc1ccc(-c2oc(=O)n(C)c2-c2ccc(OC)cc2)cc1,,inactive: 4.68%
CCN(c1cccc(C)c1)S(=O)(=O)c1ccc(-n2cccn2)cc1,"inconclusive: 23.1 µM [inhibitor, single point] and inconclusive: 29.1 µM [inhibitor, single point]",
NC(=S)N/N=C/c1coc2cc(Cl)ccc2c1=O,,inactive: -8.57%
C=CCN(C(=O)c1csnn1)C(C(=O)NCc1ccc(F)cc1)c1cccs1 (configuration not stated),,inactive: -23.2%
Cc1nc(Nc2ccncc2)c2oc3ccccc3c2n1,active: 10.3 µM,
Cc1occc1C(=O)Nc1ccc2c(c1)OCO2,,inconclusive: -31.2% [inhibitor]

SMILES,Potency,"activity change, negative = growth inhibition"
Cc1ccc(S(=O)(=O)N2CCC(C(=O)Nc3ccc(S(=O)(=O)N4CCCC4)cc3)CC2)cc1,"inconclusive: 29.1 µM [inhibitor, single point]",
COc1ccc(C(CNC(=O)c2c(C)nn(Cc3ccc(C)cc3)c2Cl)N2CCOCC2)cc1 (configuration not stated),"inconclusive: 29.1 µM [inhibitor, single point]",
Cc1ccc(-c2nnc3ccc(SCC(=O)c4ccccc4)nn23)cc1,"inconclusive: 35.5 µM [inhibitor, single point]",
CCOC(=O)C1(Cc2cccc(OC)c2)CCN(Cc2ccc(C)s2)CC1,active: 20.6 µM,
Cc1ccc(-c2cc(C(=O)NCc3cnn(C)c3C)c3ccccc3n2)cc1C,"inconclusive: 23.1 µM [inhibitor, single point]",
O=C(N/N=C/c1ccsc1)c1cc(-c2ccncc2)nc2ccccc12,active: 3.66 µM,
C/C=C/C(=O)Nc1cccc(C2=NOC3(C2)C[C@@H](C(N)=O)N(C(=O)C(c2ccccc2)c2ccccc2)C3)c1 (some centres not stated),"inconclusive: 29.1 µM [inhibitor, single point]",
Cc1ccc(C(=O)N2CCc3cc(CNC(=O)CSc4ccccc4)ccc32)cc1,active: 14.6 µM,
COCCNC(=S)N/N=C(\C)c1cc2ccccc2o1,"inconclusive: 29.1 µM [inhibitor, single point]",
Cc1ccc(NC(=O)CN2C(=O)N/C(=C\c3cccn3-c3cccc(C(=O)O)c3)C2=O)cc1,,inactive: 3.33%
c1cc(-c2ccc(N3CCOCC3)cc2)n2cnnc2c1,,inactive: 0.74%
CNc1ccc(SC#N)cc1,"inconclusive: 25.9 µM [inhibitor, partial curve, poor fit]",
Cc1csc(CNC(=O)c2cc(COc3c(C)cccc3C)on2)n1,"inconclusive: 0.82 µM [inhibitor, full curve]",
N#Cc1c(-c2cccs2)cc(-c2cccnc2)nc1N,"inconclusive: 29.1 µM [inhibitor, single point]",
CC(/C=C/c1ccco1)=N\NC(=O)CNc1ccc2ccccc2c1,"inconclusive: 29.1 µM [inhibitor, single point]",
Cc1cccc(-c2c3c(=O)n(C)c(=O)n(C)c3c3c(C)nc4ccccc4n23)c1,"inconclusive: 29.1 µM [inhibitor, partial curve, poor fit]",
Cc1ccccc1NC(=O)N1CCN(S(=O)(=O)c2ccccc2)CC1,"inconclusive: 29.1 µM [inhibitor, single point]",
CC(C)n1c(NCc2nc3ccccc3n2C)nc2ccccc21,,inactive: -7.94%
O=C(C1CCN(S(=O)(=O)c2ccc3c(c2)OCCO3)CC1)N1CCc2ccccc21,"inconclusive: 20.6 µM [inhibitor, single point]",
COc1ccc(NC(=O)CCN2CCC(C)CC2)cc1,,inactive: -4.76%
Cc1cc(C)n(-c2nc(N(C)C)nc(N3CCOCC3)n2)n1,,inactive: -12.1%
CN(C)CCNC(=O)c1ccc(Sc2ccc(Br)cc2)c([N+](=O)[O-])c1,active: 16.4 µM,
O=C1c2ccccc2CSc2c(O)cccc21,"inconclusive: 29.1 µM [inhibitor, single point]",
COc1cccc(-n2c(-c3ccccc3)c[nH]c2=S)c1,"inconclusive: 29.1 µM [inhibitor, single point]",

SMILES,Potency,"activity change, negative = growth inhibition"
COCc1ccc(-c2c(-c3ccsc3)oc(=O)c3cc(OC)c(OC)cc23)cc1,"inconclusive: 7.31 µM [inhibitor, partial curve]",
CCCCC[C@H](O)/C=C/[C@@H]1[C@@H](C/C=C\CCCC(=O)OC)[C@@H](O)C[C@H]1O,,inactive: -28.1%
O=C(c1ccco1)N1CCN(C(=S)NC2CC3CCC2C3)CC1 (configuration not stated),,inactive: -26.5%
Cc1ccc(S(=O)(=O)N2CCCCC2)cc1NC(=O)Cn1ccsc1=N,"inconclusive: 29.1 µM [inhibitor, single point]",
N#Cc1ccc(S(=O)(=O)N2CCC(Oc3cccc(C(F)(F)F)c3)CC2)cc1,"inconclusive: 23.1 µM [inhibitor, single point]",
Cc1nc(N2CCC(C)CC2)c2c(C)c(C(=O)Nc3cc(F)ccc3C)sc2n1,"inconclusive: 18.4 µM [inhibitor, single point]",
COc1cccc(C(=O)Nc2ccccc2C(=O)NCC2CCCO2)c1 (configuration not stated),,inconclusive: -33.3% [inhibitor]
c1csc(Cc2nn3c(-c4ccncc4)nnc3s2)c1,"inconclusive: 20.6 µM [inhibitor, partial curve]",
CCOC(=O)C1(CCOC)CCN(Cc2cccc(OCc3ccccc3)c2)CC1,active: 14.6 µM,
CN(NS(=O)(=O)c1ccc(Br)cc1)c1nc(C(F)(F)F)nc2ccccc12,active: 23.1 µM,
COc1ccc(CNC(=O)C(=O)Nc2c3c(nn2-c2ccccc2)CSC3)cc1,"inconclusive: 13 µM [inhibitor, partial curve]",
COc1ccccc1CCC(=O)Nc1ccc2c(c1)c(=O)n(C)n2-c1cccs1,active: 3.66 µM,
O=C(Nc1ccccc1)Nc1cccc(Cl)c1,active: 14.1 µM,
COc1cc(OC)c(OC)cc1CN1CCc2nc(Nc3ccc4c(c3)OCCO4)ncc2C1,active: 16.4 µM,
CCN(CC)C(=O)c1c(-c2ccccc2)oc2ccc(OC)cc12,"inconclusive: 23.1 µM [inhibitor, single point]",
COc1ccc(S(=O)(=O)Cc2ccc(C(=O)NCc3ccccc3)o2)cc1,,inactive: -18.8%
COc1ccc(N2CCN(C(CNC(=O)C(=O)NCc3cccnc3)c3cccnc3)CC2)cc1 (configuration not stated),"inconclusive: 16.4 µM [inhibitor, partial curve]",
Cc1ccccc1CNC(=O)Cc1ccc(NC(=O)N2CCCCc3ccccc32)cc1,"inconclusive: 29.1 µM [inhibitor, single point]",
Cn1c(=O)c2c(nc(N3CCOCC3)n2Cc2cccc(Br)c2)n(C)c1=O,active: 9.2 µM,
CC(=O)c1sc(NC(=O)CCS(=O)(=O)c2ccc(C)cc2)nc1C,active: 9.2 µM,
CC(=O)c1ccc(OCc2cc(C(=O)NCC3CCCCO3)no2)cc1 (configuration not stated),"inconclusive: 32.6 µM [inhibitor, single point]",
CCOc1ccccc1C(=O)NCC(=O)NNC(=O)c1cccc(S(=O)(=O)Nc2ccc(OC)cc2)c1,"inconclusive: 0.651 µM [inhibitor, full curve, poor fit]",
Cc1[nH]n2c(=O)cc(-c3ccc(Cl)cc3)nc2c1-c1ccccc1,active: 0.651 µM,
O=c1c(CCc2ccccc2)nc2cnc(Oc3ccccc3)nc2n1C[C@H]1CCCO1,"inconclusive: 25.9 µM [inhibitor, single point]",
